Assays:
[1] = molecular target: T1, 0.1% NP40 membrane extract from the human carcinoma cell line LS-174 (antigen EGP40 or EPCAM) (Homo sapiens, UniProt P16422); assay: HuNR-LU-10 competitive immunoreactivity ELISA; type: binding; settings: relative to intact divalent humanized NR-LU-10 antibody; competition with peroxidase-labeled murine NR-LU-10
T1 construct: an 0.1% NP40 membrane extract from the human carcinoma cell line, LS-174 (ATCC #CL188); host or cells: LS-174 human carcinoma cell line (0.1% NP40 membrane extract)
T1 sequence (P16422 24-314): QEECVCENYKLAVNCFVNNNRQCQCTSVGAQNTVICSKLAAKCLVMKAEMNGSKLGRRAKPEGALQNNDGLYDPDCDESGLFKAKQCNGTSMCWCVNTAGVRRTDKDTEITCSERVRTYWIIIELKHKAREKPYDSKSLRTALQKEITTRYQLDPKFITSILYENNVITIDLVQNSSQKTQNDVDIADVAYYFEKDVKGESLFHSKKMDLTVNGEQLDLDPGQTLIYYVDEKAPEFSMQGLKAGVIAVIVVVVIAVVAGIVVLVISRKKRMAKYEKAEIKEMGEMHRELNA
Method: HuNR-LU-10 Competitive Immunoreactivity ELISA. Serial dilutions of the humanized NR-LU-10 whole antibody or the huNR-LU-10 fusion protein were allowed to compete with peroxidase-labeled murine NR-LU-10 whole antibody for binding to an 0.1% NP40 membrane extract from the human carcinoma cell line, LS-174 (ATCC #CL188). Following a log-logit transformation of the data in which curves were fit to the same slope, the concentration of competitor antibody that gave 50% inhibition (k) was calculated. Percent immunoreactivity was determined according the formula: k (fusion protein standard)/k (whole antibody standard)×100.

[2] = test system: SW-1222 human colon cancer xenografts; assay: Pretargeted biodistribution, blood clearance and tumor uptake with huNR-LU-10 scFvSA
[3] = test system: SW-1222 human colon cancer xenografts; settings: mouse, in vivo
Biotin binding capacity = settings: 9-fold molar excess of [3H]biotin
Method: (§1) Biotin Binding and Dissociation. Biotin binding capacity was determined by incubation of a known quantity of fusion protein with a 9-fold molar excess of [3H]biotin (NEN Research Products, Boston, Mass.). After removal of uncomplexed biotin using streptavidin-immobilized beads (Pierce Chemical; Rockford, Ill.), the amount of [^3H]biotin associated with the fusion protein was determined.
as §1, with “Capacity.” for “and Dissociation.”, “[^3H]biotin” for “[3H]biotin”

Percent immunoreactivity [1]: ~225% | Biotin binding capacity (average biotins bound) (Biotin binding capacity): 3.0 biotins
B1: huNR-LU-10 scFvSA: Fusion of humanized NR-LU-10 (anti-EGP40/EPCAM) scFv to genomic streptavidin, SEQ ID NO: 4, plasmid pEX94B (protein)
chain: MRKIVVAAIAVSLTTVSITAMADIQMTQSPSSLSASVGDRVTITCRASQGIRGNLDWYQQKPGKGPKLLIYSTSNLNSGVPSRFSGSGSGSDYTLTISSLQPEDFATYYCLQRNAYPYTFGQGTKLEIKISGGGGSGGGGSGGGGSSQVQLVQSGAEVKKPGASVKVSCKASGFNIKDTYMHWVRQAPGQGLQWMGRIDPANGNTKSDLSFQGRVTITADTSINTAYMELSSLRSDDTAVYYCSREVLTGTWSLDYWGQGTLVTVSSGSGSA[not shown - about 150 residues]
modifications: Predicted amino acid sequence for huNR-LU-10 single chain antibody-genomic streptavidin fusion.
Concentration of 125I-huNR-LU-10 scFvSA radioactivity in blood and most well-perfused soft tissues ([2]; 575 μg iv, sCA at 18 h, exceptions liver and tumor): very low | Tumor to blood ratio ([2]; by 24 hours after DOTA-biotin injection): several thousand | Concentration of 111In-DOTA-biotin radioactivity in blood and all non-xenograft soft tissues ([2]; pretargeted 111In-DOTA-biotin 1.0 μg, 3 h after sCA): very low | Tumor to blood ratio ([2]; two hours after DOTA-biotin injection): ~100 | Tumor AUC of 111In-DOTA-biotin [3]: 1726
